Data taken from PubChem BioAssay AID463173 (ICCB-Longwood Screening Facility, Harvard Medical School, 2010).
The campaign covered roughly 52,000 compounds. About 4,300 (8.3%) were called active. No stated cut-off is given here; in the data, active means survival mostly below about 52% (no sharp cut-off); inactive means mostly above about 56%. The list shows a part of the results.

What follows are molecules tested on DeltatarO mutant (assay: growth inhibition of S. aureus wild type versus tarO mutant, primary screen, teichoic acid synthesis inhibitors, RN4220, OD600 (AID 463173)). Settings: OD600, 18 h, hits give low values, screened at 18.75 µg/mL (by protocol).

| SMILES | survival |
| --- | --- |
| COc1cccc(CNC(=O)c2ccc(CN3CC(=O)N4CCCCC4C3=O)cc2)c1 (stereo unspecified) | inactive: 82% |
| COc1ccccc1/C=C(\C#N)C(=O)NCC1CCCO1 (stereo unspecified) | inactive: 129% |
| CCn1c(C(=O)NCc2ccccc2)cc2sc(Cl)cc21 | active: 34% |
| Cc1ccc(NC(=O)c2cc(-c3cccs3)nc3ccccc23)c(C)c1 | active: 57% |
| CC(C)CCn1c(=O)c2sccc2n2c(CCCC(=O)Nc3ccc(F)c(Cl)c3)nnc12 | inactive: 48% |
| O=C(NCc1ccc(F)cc1Cl)c1ccc(CSCc2ccccc2Cl)o1 | inactive: 54% |
| CC(C)(C)C1=CC(CO)CC(CO)C1 (stereo unspecified) | inactive: 67% |
| Cc1ccc(N2CCN(C(=O)Nc3cn(CC(C)C)c(=O)c4ccccc34)CC2)c(C)c1 | inactive: 124% |
| CC(C)Oc1ccc(CNC(=O)c2cnc3sc(N4CCCCCC4)nn3c2=O)cc1 | inactive: 80% |
| CCN1C(=O)C2C(c3ccco3)NC(C(=O)OC)(c3ccccc3)C2C1=O (stereo unspecified) | inactive: 92% |
| CCCCC(=O)Nc1cccc(-c2nc3ccccc3s2)c1 | active: 41% |
| COc1ccc(-n2ncc3c(=O)n(CC(=O)NC(C)C)cnc32)cc1 | inactive: 83% |
| CCCCN(C)CC(O)Cn1cc(/C=C/C(=O)c2ccc(OCC)cc2)c2ccccc21 (stereo unspecified) | active: 6% |
| Cc1cccc(-n2ccnc2SCC(=O)Nc2cc(C(F)(F)F)ccc2Cl)c1 | inactive: 73% |
| CCOc1ccc(-n2c(SCC(=O)N3CCCc4ccccc43)nc3c([nH]c4ccccc43)c2=O)cc1 | inactive: 57% |
| CCOc1ccccc1NC(=O)CCS(=O)(=O)c1ccc(OC)cc1 | inactive: 94% |
| CCc1ccc(NC(=O)c2cc(CN3CCOCC3)on2)cc1 | inactive: 88% |
| CCOC(=O)c1[nH]c(C)c(C(=O)NCCc2ccccc2)c1C | inactive: 80% |
| O=C(CCn1c(=O)c2ccccc2n(Cc2ccc(Cl)cc2)c1=O)NCc1ccc2c(c1)OCO2 | inactive: 95% |
| CCC(=O)C1=C(c2ccccc2)N(C(=O)CC)n2c(nnc2C2CCCCC2)S1 | inactive: 55% |
| O=C(Nc1ccccc1[N+](=O)[O-])c1csnn1 | inactive: 73% |
| CC(C)c1ccc(Nc2c(-c3ccsc3)nc3ccc(Cl)cn23)cc1 | inactive: 101% |
| Cc1ccc2nc(NCCc3ccc(Cl)cc3)c3nncn3c2c1 | inactive: 68% |
| CCOC(=O)C1=C(CN(C)Cc2ccccc2)NC(=O)NC1c1ccc(OC(C)C)cc1 (stereo unspecified) | inactive: 77% |
| Cc1ccc(NC(=O)CN2C(=O)C(c3ccc(F)cc3)=NC2(C)C)c(C)c1 | inactive: 90% |
| Cc1cccc(C(=O)Nc2sc3c(c2C(=O)Nc2ccccc2)CCC3)c1 | inactive: 66% |
